Some of the results follow. Cut-off read from the data, not from the text of the source: active = 3.2 or more and inactive = the rest. The signal is at background level for most entries.
Assays:
Test in all cases: enrichment score (SH2-bound / input frequency) (ratio); bacterial display of known human phosphotyrosine sites (pTyr-Var adds point mutants) read by sequencing; higher = stronger binding; tyrosines were phosphorylated by kinases first
Conditions in all cases: peptide library: pTyr-Var
SHP2 C-SH2 domain E139D = target: SHP2 C-SH2 domain E139D
[1] = target: SHP2 C-SH2 domain wild-type
SHP2 N-SH2 domain L43F = target: SHP2 N-SH2 domain L43F
SHP2 N-SH2 domain T42A = target: SHP2 N-SH2 domain T42A
SHP2 N-SH2 domain T52S = target: SHP2 N-SH2 domain T52S
[2] = target: SHP2 N-SH2 domain wild-type

Measured: enrichment score
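Note: displayed peptides selected on beads carrying the immobilized SH2 domain, with library peptides lacking any tyrosine serving as negative controls.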

B1: VHL_Y175_V170F (peptide)
chain: FKPENYRRLDI
inactive: SHP2 C-SH2 domain E139D 0.739 | [1] 0.775 | SHP2 N-SH2 domain L43F 0.808 | SHP2 N-SH2 domain T42A 0.798 | SHP2 N-SH2 domain T52S 0.751 | [2] 0.712

B2: VHL_Y185_E186K (peptide)
chain: IVRSLYKDLED
inactive: SHP2 C-SH2 domain E139D 1.07 | [1] 0.774 | SHP2 N-SH2 domain L43F 1.15 | SHP2 N-SH2 domain T42A 0.768 | SHP2 N-SH2 domain T52S 0.865 | [2] 0.826

B3: VHL_Y185_I180V (peptide)
chain: VVRSLYEDLED
inactive: SHP2 C-SH2 domain E139D 1 | [1] 0.739 | SHP2 N-SH2 domain L43F 0.856 | SHP2 N-SH2 domain T42A 0.67 | SHP2 N-SH2 domain T52S 0.69 | [2] 0.833

B4: VHL_Y185_L188P (peptide)
chain: IVRSLYEDPED
inactive: SHP2 C-SH2 domain E139D 0.87 | [1] 0.959 | SHP2 N-SH2 domain L43F 0.99 | SHP2 N-SH2 domain T42A 0.831 | SHP2 N-SH2 domain T52S 1.05 | [2] 0.925

B5: VHL_Y185_L188V (peptide)
chain: IVRSLYEDVED
inactive: SHP2 C-SH2 domain E139D 0.926 | [1] 0.876 | SHP2 N-SH2 domain L43F 0.923 | SHP2 N-SH2 domain T42A 0.997 | SHP2 N-SH2 domain T52S 0.812 | [2] 0.909

B6: VNN1_Y134_N131S (peptide)
chain: KNSSIYVVANI
inactive: SHP2 C-SH2 domain E139D 1.26 | [1] 1.56 | SHP2 N-SH2 domain L43F 1.38 | SHP2 N-SH2 domain T42A 1.44 | SHP2 N-SH2 domain T52S 1.32 | [2] 1.59

B7: VPS13B_Y1991_I1994V (peptide)
chain: GVASDYKCVDP
inactive: SHP2 C-SH2 domain E139D 0.954 | [1] 0.852 | SHP2 N-SH2 domain L43F 0.652 | SHP2 N-SH2 domain T42A 0.626 | SHP2 N-SH2 domain T52S 0.72 | [2] 0.771

B8: VPS13B_Y2774_S2773L (peptide)
chain: QKLPLYILENN
inactive: SHP2 C-SH2 domain E139D 1.49 | [1] 1.05 | SHP2 N-SH2 domain L43F 1 | SHP2 N-SH2 domain T42A 1.07 | SHP2 N-SH2 domain T52S 1.12 | [2] 1.23

B9: VPS13D_Y864 (peptide)
chain: ERRLIYTSDPK
inactive: SHP2 C-SH2 domain E139D 0.663 | [1] 0.739 | SHP2 N-SH2 domain L43F 0.899 | SHP2 N-SH2 domain T42A 0.588 | SHP2 N-SH2 domain T52S 1.07 | [2] 0.786

B10: VPS35L_Y32_Y32C (peptide)
chain: LEFGDCHPLKP
inactive: SHP2 C-SH2 domain E139D 0.885 | [1] 0.906 | SHP2 N-SH2 domain L43F 1.06 | SHP2 N-SH2 domain T42A 0.805 | SHP2 N-SH2 domain T52S 0.786 | [2] 0.963

B11: VSX2_Y219 (peptide)
chain: SVMAEYGLYGA
inactive: SHP2 C-SH2 domain E139D 0.962 | [1] 0.71 | SHP2 N-SH2 domain L43F 0.709 | SHP2 N-SH2 domain T42A 0.634 | SHP2 N-SH2 domain T52S 0.925 | [2] 0.91

B12: VSX2_Y219_G223A_YF (peptide)
chain: SVMAEYGLFAA
inactive: SHP2 C-SH2 domain E139D 1.1 | [1] 0.944 | SHP2 N-SH2 domain L43F 0.914 | SHP2 N-SH2 domain T42A 0.872 | SHP2 N-SH2 domain T52S 0.903 | [2] 0.871

B13: VSX2_Y219_G223R (peptide)
chain: SVMAEYGLYRA
inactive: SHP2 C-SH2 domain E139D 1.02 | [1] 0.918 | SHP2 N-SH2 domain L43F 1.01 | SHP2 N-SH2 domain T42A 0.745 | SHP2 N-SH2 domain T52S 0.931 | [2] 0.953

B14: VSX2_Y219_YF (peptide)
chain: SVMAEYGLFGA
inactive: SHP2 C-SH2 domain E139D 0.905 | [1] 0.75 | SHP2 N-SH2 domain L43F 0.71 | SHP2 N-SH2 domain T42A 0.707 | SHP2 N-SH2 domain T52S 0.857 | [2] 0.768

B15: VSX2_Y222_G223A (peptide)
chain: AEYGLYAAMVR
inactive: SHP2 C-SH2 domain E139D 0.834 | [1] 0.819 | SHP2 N-SH2 domain L43F 0.813 | SHP2 N-SH2 domain T42A 0.726 | SHP2 N-SH2 domain T52S 0.623 | [2] 0.988

B16: VSX2_Y222_G223R (peptide)
chain: AEYGLYRAMVR
inactive: SHP2 C-SH2 domain E139D 0.802 | [1] 0.962 | SHP2 N-SH2 domain L43F 0.771 | SHP2 N-SH2 domain T42A 0.975 | SHP2 N-SH2 domain T52S 0.611 | [2] 0.897

B17: VSX2_Y222_G223R_YF (peptide)
chain: AEFGLYRAMVR
inactive: SHP2 C-SH2 domain E139D 0.71 | [1] 0.708 | SHP2 N-SH2 domain L43F 0.757 | SHP2 N-SH2 domain T42A 0.648 | SHP2 N-SH2 domain T52S 0.756 | [2] 0.839

B18: VSX2_Y222_R227W (peptide)
chain: AEYGLYGAMVW
inactive: SHP2 C-SH2 domain E139D 0.688 | [1] 0.887 | SHP2 N-SH2 domain L43F 0.956 | SHP2 N-SH2 domain T42A 0.727 | SHP2 N-SH2 domain T52S 0.668 | [2] 1.31

B19: VWF_Y1584 (peptide)
chain: GLALRYLSDHS
inactive: SHP2 C-SH2 domain E139D 0.967 | [1] 0.675 | SHP2 N-SH2 domain L43F 1.02 | SHP2 N-SH2 domain T42A 0.737 | SHP2 N-SH2 domain T52S 0.839 | [2] 0.931

— the supplement of paper PMC10369915
